Reference: PubChem BioAssay AID360 (National Center for Advancing Translational Sciences (NCATS), 2006)
The whole screen tested about 48,000 compounds, of which about 550 (1.1%) were called active. Inconclusive means that the source gave no clear call. Such entries were picked first, then a sample of the others. No stated cut-off is given here; in the data, active means potency below about 15 µM; inconclusive means mostly about 16 µM to 33 µM; inactive means weaker than that. No potency is given beside an inconclusive call; the fits are too rough.

Each compound was assayed against Lysosomal acid glucosylceramidase (Homo sapiens) (UniProt P04062) (assay: Glucocerebrosidase). Conditions: purified enzyme, resorufin glucoside fluorescence (screen aimed at inhibitors), 20 min.
UniProt P04062, sequence (P04062 whole entry, looked up): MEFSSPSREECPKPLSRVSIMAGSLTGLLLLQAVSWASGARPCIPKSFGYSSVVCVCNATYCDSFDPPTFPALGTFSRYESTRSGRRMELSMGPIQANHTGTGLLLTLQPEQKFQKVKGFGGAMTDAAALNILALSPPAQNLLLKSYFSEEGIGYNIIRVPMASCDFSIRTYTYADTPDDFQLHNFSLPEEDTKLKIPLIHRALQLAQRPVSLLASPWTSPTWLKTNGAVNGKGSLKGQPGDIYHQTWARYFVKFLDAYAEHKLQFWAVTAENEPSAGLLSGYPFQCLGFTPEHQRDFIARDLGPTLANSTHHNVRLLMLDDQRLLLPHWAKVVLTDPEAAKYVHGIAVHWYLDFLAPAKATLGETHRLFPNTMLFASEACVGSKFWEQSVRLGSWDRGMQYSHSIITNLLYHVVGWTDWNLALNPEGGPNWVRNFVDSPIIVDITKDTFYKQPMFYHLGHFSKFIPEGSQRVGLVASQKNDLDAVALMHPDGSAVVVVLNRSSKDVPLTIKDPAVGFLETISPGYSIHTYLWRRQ
How it was run: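 Wild-type enzyme at 0.2 nM final in 50mM citric acid/KH2PO4, 10mM sodium taurocholate, 0.01% tween-20, pH 5.9, with resorufin beta-D-glucopyranoside at 30 uM final. Compounds titrated, 20 min at RT, red fluorescence read; AC50 from titration.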
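Further: the screen sought inhibitors.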
Potency means the concentration at half of the fitted maximal effect.

SMILES	Potency
O=C(CSc1cccc(C(F)(F)F)c1)NC(=O)NCc1ccco1	inconclusive [decreasing]
CCOC(=O)Nc1ccc(C(=O)Oc2ccccc2)c(O)c1	inconclusive [increasing]
O=C(NC1CCSC1=O)c1cccc(C(=O)NC2CCSC2=O)c1 (configuration not stated)	inconclusive [decreasing]
Cc1nn(-c2cccc(C(F)(F)F)c2)c(Cl)c1/C=N/n1cnnc1	inconclusive [decreasing]
COc1cc(C2c3c(oc4ccccc4c3=O)C(=O)N2Cc2ccncc2)ccc1O (configuration not stated)	inactive: > 76.9 µM
Cc1ccccc1C(=O)N1CCN(c2ccc(NC(=O)c3ccco3)cc2Cl)CC1	inconclusive [decreasing]
CC1CCC(NC(=O)c2ccc(N3CCCC3=O)cc2)CC1 (configuration not stated)	inconclusive [decreasing]
Nc1nc2c(s1)CCc1c-2cnn1-c1ccccc1	inactive: > 76.9 µM
Cc1nc(N2CCN(C(c3ccccc3)c3ccccc3)CC2)[nH]c(=O)c1C	inconclusive [decreasing]
O=S(=O)(c1ccc(F)cc1)N(CCO)CC(O)Cn1c2ccccc2c2ccccc21 (configuration not stated)	inconclusive [decreasing]
Cc1nnc2sc(-c3ccc(NC(=O)c4cccnc4)cc3)nn12	inconclusive [decreasing]
CCOc1ccccc1CNS(=O)(=O)c1ccc2[nH]c(=O)sc2c1	inconclusive [decreasing]
Cc1ccc(-c2noc(CCCC(=O)Nc3cccnc3)n2)cc1	inconclusive [decreasing]
COc1ccc(C2C(C(=O)NCCN3CCOCC3)c3ccccc3C(=O)N2C2CCCCC2)cc1 (configuration not stated)	active: 13.9 µM
Cc1cccc2cc(CN(CCCO)C(=O)Nc3cccc(Cl)c3)c(=O)[nH]c12	inactive: > 76.9 µM
Brc1ccc2nc(CSc3ncn[nH]3)cn2c1	inactive: > 76.9 µM
CC(C)C(=O)N(Cc1cc2ccccc2[nH]c1=O)C(C)(C)C	inconclusive [decreasing]
CC(c1ccco1)N(C(=O)CSc1ccc(Br)cc1)c1ccccn1 (configuration not stated)	inactive: > 76.9 µM
CC1CN(S(=O)(=O)c2cccc(C(=O)OCc3cc(=O)oc4cc(O)ccc34)c2)CC(C)O1 (configuration not stated)	inactive: > 76.9 µM
O=C(CN1CCc2ccccc2C1)Nc1ccccc1N1CCCCCC1	inconclusive [decreasing]
CC(C)(C)OC(=O)N1CC(O)CC1C(=O)OCC(=O)c1ccc(Cl)cc1 (configuration not stated)	inactive: > 76.9 µM
CCOC(=O)N1CCN(C(=O)c2ccc3c(=O)n(Cc4ccc(OC)cc4)c(=S)[nH]c3c2)CC1	inactive: > 76.9 µM
COc1ccc(NC(=O)C2CCCN(S(=O)(=O)c3ccc(C)cc3)C2)cc1OC (configuration not stated)	inactive: > 76.9 µM
CCN(CC)C(=O)N1CCC(NC(=O)c2ccc(C(C)(C)C)cc2)CC1	inconclusive [decreasing]
Cc1ccc(-c2noc(C3CCN(C(=O)Nc4ccc(C#N)cc4)CC3)n2)o1	inconclusive [decreasing]
C=CCOc1ccc(C2NC(=O)NC(C)=C2C(=O)OC)cc1 (configuration not stated)	inactive: > 76.9 µM

SMILES	Potency
CCn1nnc(NC(=O)c2ccc(-c3ccc(Cl)cc3)o2)n1	inconclusive [decreasing]
CN1CCN(c2ccc(NC(=O)COc3ccc(Cl)cc3Cl)cc2)CC1	inconclusive [decreasing]
c1ccc(Cc2nnc3sc(C4COc5ccccc5O4)nn23)cc1 (configuration not stated)	inconclusive [decreasing]
CCOC(=O)c1c(NC(=O)c2cccs2)sc(C)c1C	inconclusive [increasing]
O=C(NCCCN1CCOCC1)c1cc2cc(Cl)cc(Cl)c2oc1=O	inactive: > 76.9 µM
COc1ccc(Cl)cc1C(=O)Nc1ccc2c(c1)OCO2	inconclusive [increasing]
O=c1[nH]c2ccccc2nc1NCCN1CCOCC1	inactive: > 76.9 µM
c1cnc2ccc(C(c3nnnn3C3CCCC3)N3CCN(c4nc5ccccc5s4)CC3)cc2c1 (configuration not stated)	inconclusive [decreasing]
O=C(CN1C(=O)c2cccc3cccc1c23)NCc1ccc2c(c1)OCO2	inactive: > 76.9 µM
CCOC(=O)c1cc2occc2n1CCCN1C(=O)c2ccccc2C1=O	inconclusive [increasing]
N#Cc1nc(COc2ccc(Br)cc2)oc1NCCCn1ccnc1	active: 14.4 µM
N#Cc1c(NC(=O)CSc2n[nH]c(Cc3ccccc3)n2)oc(-c2ccccc2)c1-c1ccccc1	inconclusive [decreasing]
CC(C)(C)c1ccc(-c2nnc(SCCC#N)n2C2CCCC2)cc1	inconclusive [decreasing]
Cc1nn(Cc2ccccc2Cl)c2sc(C(=O)NCCCn3ccnc3)cc12	inconclusive [decreasing]
C=C(C)c1cccc(C(C)(C)NC(=O)NCCCn2ccnc2)c1	inconclusive [decreasing]
COc1cccc(CNc2nc3nc(C)c(Cl)c(C)n3n2)c1	inactive: > 76.9 µM
c1ccc(CCN2CN(CCCN3CCOCC3)c3nc4ccccc4n3C2)cc1	inconclusive [decreasing]
CC(C)c1ccc(S(=O)(=O)N2CCN(CCC(=O)Nc3ccc(N(C)C)cc3)CC2)cc1	inconclusive [decreasing]
O=C(Nc1ccc2c(c1)oc1ccccc12)c1cccnc1	inconclusive [decreasing]
Cc1ccc(C)c(NS(=O)(=O)c2c(C)ccc3nsnc23)c1	inactive: > 76.9 µM
O=C(Cc1cccs1)Nc1ccc(S(=O)(=O)N2CCCCC2)cc1	inconclusive [decreasing]
O=C(NCCc1ccccc1)C1CCCN(S(=O)(=O)c2cccc3nonc23)C1 (configuration not stated)	inconclusive [decreasing]
O=C(NC12CC3CC(CC(C3)C1)C2)N1CCC(n2nnc3ccccc32)CC1	inconclusive [decreasing]
COc1ccc(-c2nnc(SCC(=O)/C(C#N)=C(\C)N)o2)cc1	inactive: > 76.9 µM
COC(=O)c1cccc(NC(=O)c2cc3sccc3n2C)c1	inactive: > 76.9 µM
CCOC(=O)C1=C(C)N(c2nonc2NC(C)=O)C(N)=C(C#N)C1c1ccccc1F (configuration not stated)	inconclusive [decreasing]

SMILES	Potency
CC1CCN(C(=O)Cc2nn(C)c(=O)c3ccccc23)CC1	inconclusive [decreasing]
CCC1CCCCN1C(=O)N[C@@H](Cc1ccccc1)C(=O)O (some centres not stated)	inactive: > 76.9 µM
Cc1nc(SCC(=O)N2CCCc3ccccc32)c2oc3ccccc3c2n1	inactive: > 76.9 µM
N#Cc1c(C(F)(F)F)cc(-c2ccco2)nc1SCc1ccncc1	inactive: > 76.9 µM
CCCC(C(=O)NCc1ccco1)N(C(=O)CNS(=O)(=O)c1ccccc1)c1ccccc1OC (configuration not stated)	active: 15.2 µM
NC(CC(=O)OC1CCCCC1)C(=O)OC1CCCCC1 (configuration not stated)	inconclusive [decreasing]
COc1ccc(Br)cc1C(=O)Nc1cccc(-c2nnc(-c3ccco3)o2)c1	inactive
CCCC(=O)Nc1ccc(C(=O)Nc2nnc(COC)s2)cc1	active: 0.768 µM
Cc1cccc(N2CCN(CCNC(=O)c3cc4c(s3)CS(=O)(=O)C4)CC2)c1C	inconclusive [decreasing]
COc1ccc(N2CCN(CCNC(=O)CCCn3c(=O)[nH]c4cc(Cl)ccc4c3=O)CC2)cc1	inactive: > 76.9 µM
COc1cccc(-c2nc3ccc(O)cc3c(=O)o2)c1	active: 12.6 µM
Nn1c(SCc2cccc3ccccc23)nnc1-c1ccco1	inconclusive [decreasing]
CCCCc1nc2ccccc2c(=O)n1NC(=O)c1c(O)c2c(n(CC(C)C)c1=O)CCCC2	inconclusive [decreasing]
Cn1nc(-c2ccc(C(=O)Nc3cccnc3)cc2)c2ccccc2c1=O	inconclusive [decreasing]
COc1nc(-c2ccc(C)cc2)ccc1-c1noc(-c2cccnc2)n1	active: 12.2 µM
O=C(OC1CCCCC1)c1ccc2c(c1)C1C=CCC1C(C(=O)O)N2 (configuration not stated)	inconclusive [decreasing]
O=C(NCc1ccco1)c1cccc2ccccc12	inactive: > 76.9 µM
COc1cc2nc(SCc3c(C)noc3C)n(CCC3=CCCCC3)c(=O)c2cc1OC	inconclusive [increasing]
Cc1ccc(-c2nn(CC(=O)NCc3ccco3)c(=O)c3ccccc23)cc1	inactive: > 76.9 µM
CCCn1c2c(c(O)c(C(=O)Nc3ccc(OC)cc3)c1=O)CCCC2	inconclusive [increasing]
CSc1ccc(C2C(C#N)=C(N)Oc3c2ccc(=O)c2c(C)oc(C)c32)cc1 (configuration not stated)	inconclusive [decreasing]
CN1CCN(c2ccc(Cl)cc2NC(=O)c2nn(-c3ccccc3)c(=O)c3ccccc23)CC1	inconclusive [decreasing]
COc1ccc(NC(=O)CN2CCN(c3ccc(Cl)cc3)CC2)c(OC)c1	inactive: > 76.9 µM
Cc1ccc(C)c2[nH]c(=O)c(CN(CCN3CCCC3)C(=O)Nc3cccc(Cl)c3)cc12	inconclusive [decreasing]
CCSc1nnc(NC(=O)c2cccnc2)s1	inconclusive [decreasing]
